# Experimental data from a collection of fitness landscapes (doi:10.1038/s41467-024-54723-y).
# In all, about 18,000 sequences were measured (“TetR repression strength (sort-seq, GFP reporter)”: median about 0.23, highest 2% from about 0.68 on). Some of the results follow.
# Molecular target: TetR (class B, Tn10) (UniProt P04483)
# Experiment: TetR repression strength (sort-seq, GFP reporter) (relative to tetO2 = 1); higher = stronger repression
# Settings: E. coli
# Procedure, shortened: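 Escherichia coli SIG10-MAX cells carried a low-copy plasmid library in which eight operator positions were randomized between a constitutive promoter and sfGFP, and TetR was expressed constitutively. After 5 h of growth at 37 °C in LB with 50 µg/mL chloramphenicol, 10^6 cells were FACS-sorted into 13 fluorescence bins, and each bin was Illumina-sequenced. Repression strength was the top bin index plus one minus the read-weighted mean bin, divided by the value for the unaltered operator. Across three independent transformations, only library members with ≥30 reads in every replicate and a CV ≤0.5 were averaged.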
# UniProt P04483, sequence (P04483 whole entry): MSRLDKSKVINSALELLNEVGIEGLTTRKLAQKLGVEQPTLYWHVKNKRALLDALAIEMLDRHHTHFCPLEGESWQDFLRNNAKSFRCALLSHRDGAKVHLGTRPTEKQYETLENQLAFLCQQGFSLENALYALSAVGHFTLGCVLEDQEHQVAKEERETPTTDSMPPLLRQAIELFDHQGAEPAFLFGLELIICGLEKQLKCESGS
row,Sequence,TetR repression strength
1,TCCCGACTAGTCAACGAGA,0.317
2,TCCCTAAGAGTGACGGAGA,0.252
3,TCCCAAAAAGTGGGGGAGA,0.126
4,TCCCCCGCAGTCCCTGAGA,0.333
5,TCCCAGCCAGTACATGAGA,0.311
6,TCCCGCGCAGTAAGGGAGA,0.238
7,TCCCCTGTAGTAGGGGAGA,0.261
8,TCCCGTATAGTATGCGAGA,0.024
9,TCCCATACAGTGGTAGAGA,0.419
10,TCCCCGAAAGTCCTAGAGA,0.353
11,TCCCACGTAGTTTAAGAGA,0.161
12,TCCCGGCTAGTCAAGGAGA,0.153
13,TCCCCGGCAGTATCCGAGA,0.147
14,TCCCGATGAGTTAATGAGA,0.196
15,TCCCCCGTAGTTCGCGAGA,0.181
16,TCCCAATAAGTTCACGAGA,0.357
17,TCCCAAGGAGTGTGGGAGA,0.177
18,TCCCCACTAGTAAAAGAGA,0.303
19,TCCCAGTAAGTTGATGAGA,0.176
20,TCCCAATCAGTGTGCGAGA,0.364
21,TCCCATTAAGTTTTTGAGA,0.223
22,TCCCGGGAAGTGTGAGAGA,0.141
23,TCCCCGTCAGTCTCTGAGA,0.235
24,TCCCGGTTAGTATCGGAGA,0.363
25,TCCCTTGTAGTCCGCGAGA,0.394
26,TCCCATCCAGTATGCGAGA,0.11

row,Sequence,TetR repression strength
1,TCCCAGACAGTCTAGGAGA,0.359
2,TCCCGTCTAGTTCTGGAGA,0.687
3,TCCCGTGTAGTTCTTGAGA,0.0838
4,TCCCGGCTAGTGGCCGAGA,0.166
5,TCCCTAATAGTCCATGAGA,0.352
6,TCCCATATAGTGCAGGAGA,0.0583
7,TCCCATCAAGTGACGGAGA,0.218
8,TCCCGATGAGTTCGGGAGA,0.164
9,TCCCTAACAGTTATTGAGA,0.423
10,TCCCCATTAGTTTATGAGA,0.135
11,TCCCATGTAGTGGGAGAGA,0.392
12,TCCCATGGAGTCAGGGAGA,0.332
13,TCCCGTTTAGTCCAGGAGA,0.22
14,TCCCCAGGAGTAGCGGAGA,0.137
15,TCCCAGTAAGTAACGGAGA,0.12
16,TCCCGCTCAGTGATAGAGA,0.742
17,TCCCGTGTAGTTAGGGAGA,0.467
18,TCCCTTTCAGTCTCAGAGA,0.316
19,TCCCAGGTAGTACTGGAGA,0.234
20,TCCCAGCGAGTAAAGGAGA,0.41
21,TCCCATTAAGTCAAGGAGA,0.465
22,TCCCGCATAGTCGTGGAGA,0.215
23,TCCCTTTAAGTAGCGGAGA,0.525
24,TCCCCGTAAGTGAACGAGA,0.351
25,TCCCGTAAAGTAAGCGAGA,0.018
26,TCCCAGTTAGTGAGGGAGA,0.0957

row,Sequence,TetR repression strength
1,TCCCGAGTAGTAGGAGAGA,0.21
2,TCCCGTTAAGTCATGGAGA,0.0791
3,TCCCCAGTAGTGCTTGAGA,0.676
4,TCCCTCATAGTTGGGGAGA,0.156
5,TCCCATACAGTTTGAGAGA,0.373
6,TCCCTTCAAGTAACTGAGA,0.458
7,TCCCCGGAAGTCTAAGAGA,0.345
8,TCCCGTTTAGTGGCGGAGA,0.173
9,TCCCGGTAAGTATGAGAGA,0.336
10,TCCCCCTGAGTCGAGGAGA,0.0472
11,TCCCAAGTAGTAACTGAGA,0.126
12,TCCCCTGCAGTTCTAGAGA,0.623
13,TCCCCGGCAGTGAGGGAGA,0.167
14,TCCCTTCCAGTCGCCGAGA,0.399
15,TCCCGGCGAGTGCCAGAGA,0.216
16,TCCCGAGGAGTACATGAGA,0.221
17,TCCCGAAAAGTGATGGAGA,0.292
18,TCCCCAGAAGTGTAGGAGA,0.177
19,TCCCCATTAGTCACTGAGA,0.323
20,TCCCACGGAGTAAGAGAGA,0.179
21,TCCCCGGCAGTGGGGGAGA,0.19
22,TCCCGTTGAGTGTGCGAGA,0.234
23,TCCCGAGGAGTCATCGAGA,0.629
24,TCCCAAAGAGTAGTTGAGA,0.104
25,TCCCCGATAGTGGTGGAGA,0.191
26,TCCCAACAAGTGGAGGAGA,0.282

row,Sequence,TetR repression strength
1,TCCCGCTCAGTATAAGAGA,0.383
2,TCCCTTAGAGTGCCGGAGA,0.27
3,TCCCAGTAAGTTGGAGAGA,0.195
4,TCCCCGTCAGTTTGTGAGA,0.157
5,TCCCATTGAGTAACCGAGA,0.308
6,TCCCAAATAGTCTACGAGA,0.298
7,TCCCGTTTAGTAAGGGAGA,0.599
8,TCCCAGAAAGTAGCTGAGA,0.0993
9,TCCCAATGAGTCTCAGAGA,0.218
10,TCCCTGACAGTCTGAGAGA,0.246
11,TCCCTGGTAGTGTGGGAGA,0.21
12,TCCCGGCCAGTTGTGGAGA,0.374
13,TCCCGGATAGTCAATGAGA,0.215
14,TCCCAACGAGTGCCGGAGA,0.333
15,TCCCTGCCAGTTGAAGAGA,0.27
16,TCCCCGAAAGTACAGGAGA,0.259
17,TCCCGACTAGTAAAGGAGA,0.232
18,TCCCCGTGAGTGGATGAGA,0.137
19,TCCCCTCCAGTGTTGGAGA,0.415
20,TCCCCTTAAGTTAGGGAGA,0.17
21,TCCCAGGAAGTATGGGAGA,0.135
22,TCCCCTGTAGTAGCAGAGA,0.214
23,TCCCGGCGAGTAGGTGAGA,0.231
24,TCCCAATTAGTTTGAGAGA,0.313
25,TCCCGTGGAGTTGACGAGA,0.0573
26,TCCCTTCCAGTTCGGGAGA,0.225

row,Sequence,TetR repression strength
1,TCCCATGTAGTGATGGAGA,0.184
2,TCCCCGCTAGTCGGGGAGA,0.0641
3,TCCCTACGAGTTAATGAGA,0.253
4,TCCCTCATAGTTTCCGAGA,0.364
5,TCCCAGTTAGTACGCGAGA,0.268
6,TCCCCCAAAGTGCCAGAGA,0.202
7,TCCCCTTCAGTGTCGGAGA,0.169
8,TCCCGTTTAGTGAGGGAGA,0.175
9,TCCCGCATAGTTGTTGAGA,0.213
10,TCCCTCTCAGTGAGTGAGA,0.625
11,TCCCTGGTAGTGGACGAGA,0.0527
12,TCCCTGCAAGTGATGGAGA,0.388
13,TCCCGGGAAGTGAGCGAGA,0.245
14,TCCCTGTAAGTTCAGGAGA,0.247
15,TCCCAACAAGTAGATGAGA,0.207
16,TCCCCATCAGTCAATGAGA,0.361
17,TCCCGCGCAGTGAGCGAGA,0.184
18,TCCCAGGTAGTAGGGGAGA,0.244
19,TCCCGCGCAGTTCGCGAGA,0.156
20,TCCCGGGGAGTCCTCGAGA,0.242
21,TCCCTTGGAGTGTGCGAGA,0.286
22,TCCCGGGAAGTGTGTGAGA,0.177
23,TCCCTGCGAGTGAGGGAGA,0.194
24,TCCCCCGAAGTCCGAGAGA,0.0297
25,TCCCGTTGAGTACCGGAGA,0.396
26,TCCCTTATAGTGTGTGAGA,0.207
